One experiment has as its system HSkMC. As to the kind of experiment: cytotoxicity call (relative viability < 0.9). The note with it: 10 µM.
The subject of another experiment is HepG2. As to the kind of experiment: cytotoxicity call (relative viability < 0.9). The note with it: 10 µM.
The test system of a further experiment is S. aureus RN4220. As to the kind of experiment: growth inhibition call (relative growth <= 0.2). The note with it: 50 µM.

Here are results for nine compounds from the antibiotic and cytotoxicity screens of Wong et al. (2023).

The list shows a part of the results.

Take `Cl.OC(CCN1CCCC1)(c1ccccc1)C1CCCCC1` (configuration not stated): the cytotoxicity call in the experiment with HSkMC was “inactive”. In addition, in the experiment with HepG2, the cytotoxicity call was “active”. In the experiment on S. aureus RN4220, the growth inhibition call is “inactive”.
`C[C@@H]1CN([C@H](C)CO)C(=O)c2cc(NS(=O)(=O)c3cn(C)cn3)ccc2O[C@@H]1CN(C)C(=O)Nc1ccc2c(c1)OCO2`: the cytotoxicity call in the experiment with HSkMC and with HepG2 was “inactive” each time. In addition, the growth inhibition call in the experiment on S. aureus RN4220 was “inactive”.
Consider `O=C(C[C@H]1C[C@@H]2c3cc(NC(=O)Nc4ccc(C(F)(F)F)cc4)ccc3O[C@@H]2[C@@H](CO)O1)NCc1cc(F)ccc1F`, for which, in the experiment with HSkMC, the cytotoxicity call is “active”. Moreover, the cytotoxicity call in the experiment with HepG2 is “inactive”. For the same compound, in the experiment with S. aureus RN4220, the growth inhibition call was “inactive”.
Turning to `CC(=O)CCC=C(C)CCC=C(C)CCC=C(C)CCC=C(C)C`, the cytotoxicity call with HSkMC and in the experiment with HepG2 was “inactive” each time. Moreover, the growth inhibition call in the experiment on S. aureus RN4220 was “inactive”.
For `C[C@H](CO)N1C[C@H](C)[C@H](CN(C)C(=O)Nc2ccc3c(c2)OCO3)OCCCC[C@H](C)Oc2ccc(NS(=O)(=O)c3ccc(Cl)cc3)cc2C1=O`, the cytotoxicity call in the experiment with HSkMC and in the experiment with HepG2 was “inactive” in each case. The growth inhibition call with S. aureus RN4220 is “inactive”.
Consider `C[C@@H]1CCCCO[C@H](CN(C)C(=O)Nc2ccccc2)[C@@H](C)CN([C@@H](C)CO)C(=O)c2cc(NC(=O)c3ccncc3)ccc2O1`, for which the cytotoxicity call with HSkMC and in the experiment with HepG2 was “inactive” in each case. In the experiment with S. aureus RN4220, the growth inhibition call was “inactive”.
`Cc1noc(C)c1NC(=O)Nc1ccc2c(c1)C(=O)N([C@H](C)CO)C[C@H](C)[C@H](CN(C)C(=O)Nc1ccc(C(F)(F)F)cc1)O2`: the cytotoxicity call in the experiment with HSkMC and in the experiment with HepG2 was “inactive” each time. The growth inhibition call in the experiment on S. aureus RN4220 is “active”.
As for `COc1ccccc1CNC(=O)C[C@H]1CC[C@H]2[C@@H](COC[C@H](O)CN2C(=O)Nc2ccc(Cl)cc2)O1`, the cytotoxicity call in the experiment on HSkMC and with HepG2 was “inactive” each time. The growth inhibition call with S. aureus RN4220 was “active”.
In the case of `COc1ccc(S(=O)(=O)Nc2ccc3c(c2)C(=O)N([C@@H](C)CO)C[C@H](C)[C@H](CN(C)Cc2ccc(Oc4ccccc4)cc2)O3)cc1`, the cytotoxicity call in the experiment on HSkMC (human skeletal muscle cells) and in the experiment on HepG2 was “inactive” each time. The growth inhibition call in the experiment with S. aureus RN4220 was “inactive”.
